{"source": "PubChem BioAssay AID2060327", "about": "(Molecular Pharmacology Branch, DTP, NCI, 2025)", "test_system": "PC-3 multi-cell spheroids, viability", "test": "Anticancer human tumor PC-3 cell line growth inhibition [IpAb];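 note: spheroids exposed to compounds for 7 days before readout; 100% = DMSO vehicle control wells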", "settings": "stronger effect = lower value", "source_text": "Combinatorial screen of targeted agents with ipatasertib and abemaciclib in multi-cell type tumor spheroids\nA high-throughput screen of multi-cell type tumor spheroids was designed to identify active combinations of targeted small molecules and ipatasertib or abemaciclib. Complex spheroids include a stromal component modeled by human endothelial cells (HUVEC) and fibroblasts modeled by human mesenchymal stem cells (MSCs). The concentration ranges selected for each drug and investigational agent were based upon clinically achievable concentrations if the clinical Cmax of the agent was known.\nCompounds. The drugs and investigational agents: ipatasertib (NSC767898), abemaciclib(NSC768073), selumetinib (NSC741078), trametinib (758246), adavosertib (NSC754352), everolimus (NSC733504), sapanisertib (NSC764658), vemurafenib (NSC761431), venetoclax (NSC766270), copanlisib (NSC809693), apelisib (NSC765974), palbociblib (NSC758247), vemurafenib (NSC761431), dabrafenib (NSC764134), ravoxertinib (NSC781343), BMS-387032 (NSC767048), sotorasib (NSC818433), talazoparib (NSC767125) and afursertib (NSC778305), were obtained from the National Cancer Institute (NCI) Developmental Therapeutics Program Chemical Repository. The FDA-approved anticancer drug set is available from the NCI Developmental Therapeutics Program. […] The stock solutions were prepared in dimethyl sulfoxide (DMSO, Sigma-Aldrich, St. Louis, MO, cat. D2650) at 800-fold the tested concentration and stored at -70 degrees C prior to their use. All drugs and investigational agents were tested over a range starting from a high concentration at or near the clinical Cmax and decreasing in half-log increments. If the clinical Cmax for an agent had not been determined, the highest concentration tested was 10 microM.\nNCI60 Cell Culture. NCI60 cell lines were obtained from the NCI Developmental Therapeutics Program Tumor Repository. For each lot of cells, the Repository performed Applied Biosystems AmpFLSTR Identifiler testing with PCR amplification to confirm consistency with the published Identifier STR profile for each cell line. Cells were kept in continuous culture for no more than 20 passages. The optimal seeding densities for each of the cell lines at each time point assessed were determined prior to performing the concentration response studies. Briefly, the NCI60 human tumor lines were grown as monolayers in RPMI 1640 medium supplemented with 10% FBS and 2 mmol/L L-glutamine.\nAn additional 9 lines were from the NCI60 cell line panel including MDA-MB-231 breast carcinoma, MDA-MB-468 breast carcinoma, MCF7 breast carcinoma, Hs578T breast carcinoma, MALME-3M melanoma, SK-MEL-2 melanoma, SK-OV-3 ovarian carcinoma, DU-145 prostate carcinoma, PC-3 prostate carcinoma, all cell lines along with major genetic alterations are listed on Table 2. Pooled donor human umbilical vein endothelial cells (HUVEC, Lonza, cat. CC-2519) and human mesenchymal stem cells (hMSC, Lonza, cat. PT-2501) were purchased from Lonza (Walkersville, MD).\nPDMR cell lines were grown in complete medium (DC medium): Dulbecco's modified Eagle's medium (DMEM)/F12 supplemented with 5% fetal bovine serum (FBS), 2 mM L-glutamine, 100 U/mL penicillin and 100 µg/ml streptomycin, 0.4 µg/ml hydrocortisone, 10 ng/ml epidermal growth factor (EGF) recombinant human protein, 24 µg/mL adenine, and 0.1 mg/mL primocin. During culture from frozen stock vials, PDMR cells were cultured in the same medium containing 10 µM Y-27632 (see Table 3). […]", "note": "A number of entries come with more than one value. This list holds those alone. The source may hold further records. Values given together repeat one measurement across runs, samples, wells, individuals or studies. Signs of the kind (2×) stand for listed records that agree."}
{"compound": "CCN1CCN(Cc2ccc(Nc3ncc(F)c(-c4cc(F)c5nc(C)n(C(C)C)c5c4)n3)nc2)CC1", "values": [{"measurement": "viability, T/C", "setting": "compound alone 0.01 µM", "value": "94.9, 83.2, 87.2, 101, 97.5, 92.9, 73.9, 78.4, 74.6, 90.5, 89.8, 81.5, 82.5%"}, {"measurement": "viability, T/C", "setting": "compound alone 0.0316 µM", "value": "69.9, 65.2, 67.4, 65.6, 59.3, 102, 54.7, 54.1, 51.7, 63.9, 58.4, 57.2, 59.2%"}, {"measurement": "viability, T/C", "setting": "compound alone 0.1 µM", "value": "52.4 (2×), 53, 60.2, 56.1, 56, 133, 51.7, 53.3, 59, 55, 51, 58.2%"}, {"measurement": "viability, T/C", "setting": "compound alone 0.316 µM", "value": "55.8, 56.9, 50.2, 65.6, 61.3, 159, 59.1, 57.3, 57.8, 66.3, 63.8, 62.5, 53.7%"}, {"measurement": "viability, T/C", "setting": "compound alone 1 µM", "value": "57.7, 54.1, 63.5, 62, 61.6, 148, 57.3, 53.1, 48.9, 61.5, 54.5, 56.9, 45.6%"}]}
